In all, about 320,000 compounds went through this assay and about 9,100 (2.8%) were called active. The shares of active, inactive and inconclusive entries below differ from those in the screen. Calls come from the whole dose curve; as a rule, active = well fitted activation curve with a large enough effect; inconclusive = small, poorly fitted or top-dose-only effect; inactive = no such curve, though single readings can be large or run the other way. Potencies beside an inconclusive call are fits to weak or partial responses and may not hold up.
Test: qHTS Assay for Rab9 Promoter Activators; note: nearly all actives have a fitted effect of over 60% in size
Details: Huh7 Rab9 promoter-luciferase reporter, luminescence, 24 h; series mostly up to 9.22 µM
How it was run: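 Huh7 cells stably carrying a Rab9 promoter-luciferase reporter, 1500 cells per well in OP-MEM I with 10% FBS, treated with compound 24 hours at 37C. Luciferase activity read by luminescence after 10 minutes with Amplite reagent.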
Potency is the fitted concentration of half-maximal effect; tags give direction and shape of the fitted curve.

Potency, inconclusive:
O=C(Nc1ccc2nn(-c3ccccc3)nc2c1)c1cccnc1 1.78 µM [activator, partial curve]
Cc1ccccc1OCCN1C(=O)c2ccccc2C1=O 3.55 µM [activator, single point]
Cc1ccc(NC(=O)O/N=C/c2ccc(F)cc2)cc1 3.98 µM [activator, partial curve]
CN(CC(=O)Nc1ccc2c(c1)OCCO2)S(=O)(=O)c1ccc(F)cc1 3.16 µM [activator, partial curve]
CC1CCc2sc(C(=O)NCc3ccccn3)cc2C1 (stereo unspecified) 3.55 µM [activator, partial curve]
O=C(Nc1ccc2nc(-c3ccccn3)[nH]c2c1)C1CCCCC1 3.98 µM [activator, single point]
C(=N\Nc1nc2ccccc2[nH]1)/c1ccccn1 0.447 µM [activator, partial curve]
c1ccc(CSc2nnc(-c3cccs3)o2)cc1 4.47 µM [activator, partial curve]
Cc1cc(C)c(OCCN2C(=O)NC(C)(C)C2=O)c(Cl)c1 6.31 µM [activator, partial curve]
Cc1cc(-n2c(C)cc(C(=O)COc3ccc(F)c(F)c3)c2C)no1 3.98 µM [activator, single point]
COc1ccc(CCNC(=O)CCN2C(=O)c3cccc4cccc(c34)C2=O)cc1OC 1 µM [activator, single point]
COc1ccc2cc(-c3cc(C(=O)OCC(=O)Nc4c(C)n(C)n(-c5ccccc5)c4=O)c4ccccc4n3)ccc2c1 0.501 µM [activator, partial curve]
CCS(=O)(=O)N1CCCC(c2nc(-c3cccc(OC)c3)no2)C1 (stereo unspecified) 5.01 µM [activator, single point]
COc1ccc(NC(=O)c2cc3ccccc3o2)cc1OC 3.98 µM [activator, partial curve]
CC(C)(CO)NC(=O)c1ccc2nc(Cc3cccc(Cl)c3)oc2c1 3.55 µM [activator, partial curve]
O=C(Nc1ccccc1)OCc1ccccn1 3.16 µM [activator, single point]
O=[N+]([O-])c1ccc(-c2ncc(-c3ccc(Br)cc3)o2)cc1 5.62 µM [activator, single point]
COCC(C)N=C1NN=C(c2ccc(NC(C)=O)cc2)CS1 (stereo unspecified) 3.98 µM [activator, partial curve]
O=C(NC1CCCCCC1)c1ccc([N+](=O)[O-])s1 5.62 µM [activator, single point]
O=C(CN1CCN(c2ccccc2O)CC1)Nc1ccccc1C(=O)NCCc1ccccc1 5.62 µM [activator, single point]
CC(=O)COc1ccc2c(C)c(C)c(=O)oc2c1 2.82 µM [activator, single point]
O=C(Cc1csc(NC(=O)Nc2ccc(Cl)cc2)n1)NCc1ccccn1 2.82 µM [activator, partial curve]
Cc1cc(NC(=S)Nc2cccc3ccccc23)n[nH]1 3.98 µM [activator, partial curve]
CCCOc1cccc(-c2cc(C(=O)NNC(=S)NCC)c3ccccc3n2)c1 5.62 µM [activator, single point]
Cc1[nH]c2ccccc2c1/C=N/Nc1nncn1N 3.16 µM [activator, single point]
N#C/C(=C/c1ccc(N2CCOCC2)o1)c1ccc(Br)cc1 2.82 µM [activator, partial curve]

Potency, inactive:
COc1ccc(C(=O)/C=C/Nc2c(C)n(C)n(-c3ccccc3)c2=O)c(OC)c1
Cc1nc(C)n(CCNC(=O)c2ccco2)n1
C=CCNC(=S)Nc1ccc(Br)cc1F
CN=C(C)/C(C(=O)OC)=C(/O)c1ccc(Cl)cc1Cl
CC(C)OP(=O)(OC(C)C)C(NC(=O)c1ccc(Br)cc1)c1ccccc1 (stereo unspecified)
CC(OC(=O)Cc1n[nH]c(=O)c2ccccc12)C(=O)Nc1cccc([N+](=O)[O-])c1 (stereo unspecified)
CCCn1c(NCc2ccccc2NS(=O)(=O)c2ccc(C)cc2)nc2ccccc21
Cc1ccc2nc(CCc3nc4ccc(C)cc4[nH]3)[nH]c2c1
CCCn1c(O)c(N=NC(=O)c2ccco2)c2ccccc21
C=CCNC(N)=S
Cc1cc(-n2c(C)cc(C(=O)COc3cc(F)ccc3[N+](=O)[O-])c2C)no1
COCc1ccc(C(=O)NC2CCSc3ccccc32)cc1 (stereo unspecified)
COC(=O)c1scc(S(=O)(=O)C(C)C)c1N/N=C(\C#N)C(=O)c1ccc(Cl)cc1
C[N+](C)(C)CCO
Cc1ccc(Oc2ccc(Oc3ccc(C)cc3)nn2)cc1

Potency, active:
O=C(NCCO)c1ccc2c3n(nc2c1)-c1ccccc1CO3 2.82 µM
CNS(=O)(=O)c1ccc(NC(=O)c2ccccn2)cc1 2.82 µM
O=C(CCN1C(=O)c2ccccc2C1=O)Nc1ccc(-c2cn3ccsc3n2)cc1 2.24 µM
O=C(CSc1nnc(-c2ccccn2)o1)Nc1cccc(Cl)c1 2.24 µM
CCOc1ccc(Nc2nc3ccccc3n3nnnc23)cc1 4.47 µM
COc1cccc(-c2cc(=O)c3ccccc3o2)c1N 2.06 µM
O=C(NCc1ccco1)c1cc(-c2cccs2)on1 2.82 µM
Cc1nnc(SCC(=O)Nc2ccc(-c3nc4ccccc4s3)cc2)s1 0.355 µM
COc1ccc(-c2cc(=O)c3cc(OC)ccc3o2)cc1 0.251 µM
CCn1ccc(C(=O)Nc2cccc(Cl)c2)n1 1.41 µM

Reference: PubChem BioAssay AID485297 (National Center for Advancing Translational Sciences (NCATS), 2010)
